# The whole screen tested about 340,000 compounds, of which about 6,900 (2%) were called active. No stated cut-off is given here; in the data, active means inhibition above about 30%; inactive means below that, where a call was filed. Only a part is listed here, and it is no random draw. The source gives no active or inactive call for entries shown without one.
# Target: D(2) dopamine receptor (Homo sapiens) (UniProt P14416)
# Assay: HTS Assay for Allosteric Antagonists of the Human D2 Dopamine Receptor: Primary Screen for Antagonists; further: 0% is about no effect
# Conditions: HEK293 TREx D2 cells, calcium flux, dopamine EC80; at 10 µM; stronger effect = higher value
# Method in brief: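 Calcium mobilization kinetics were recorded at 1 s intervals in tetracycline-induced HEK293 T-REx D2 cells, first for 180 s after compound addition and then 180 s after EC80 dopamine.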
# Sequence of UniProt P14416 (P14416 whole entry, looked up): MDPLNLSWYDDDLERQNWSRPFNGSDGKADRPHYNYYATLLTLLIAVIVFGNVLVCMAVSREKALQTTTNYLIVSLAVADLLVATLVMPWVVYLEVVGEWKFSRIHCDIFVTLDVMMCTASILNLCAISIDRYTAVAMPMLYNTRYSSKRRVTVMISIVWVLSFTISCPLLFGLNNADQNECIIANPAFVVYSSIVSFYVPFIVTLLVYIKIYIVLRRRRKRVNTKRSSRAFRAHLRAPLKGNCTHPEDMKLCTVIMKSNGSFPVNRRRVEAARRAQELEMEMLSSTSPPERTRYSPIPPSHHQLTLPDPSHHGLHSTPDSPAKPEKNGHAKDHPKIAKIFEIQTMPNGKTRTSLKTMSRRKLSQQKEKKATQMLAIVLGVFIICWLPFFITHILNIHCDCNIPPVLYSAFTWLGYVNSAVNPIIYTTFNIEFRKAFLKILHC
row,SMILES,inhibition
1,COc1ccccc1C(C)NCC(=O)NCc1ccc(C)cc1 (stereo not drawn),active: 37.2%
2,COc1ccc(CCNC(=O)c2cc(-c3ccccc3)nc3ccccc23)cc1OC,-4.4%
3,CCn1cc(C(=O)OCC(=O)Nc2cc(C)cc(C)c2)c(=O)c2ccc(C)nc21,18.8%
4,COC(=O)c1scc(-c2ccc(C)cc2)c1S(=O)(=O)Nc1cccc(C(F)(F)F)c1,-6.1%
5,COc1cccc(CNC(=O)c2cc(=O)[nH]c3ccc(S(=O)(=O)N4CCCCC4)cc23)c1,17.2%
6,CC(C)C(=O)OC1=CN(Cc2ccccc2)S(=O)(=O)c2ccccc21,14.6%
7,COc1ccccc1CNC(=O)c1ccc2c(c1)sc1nc(-c3ccc(F)cc3)cn12,0.0818%
8,Cc1cccc(C)c1Nc1c(-c2ccc(Cl)s2)nc2ncccn12,8.05%
9,NC(=O)CSc1nccn1Cc1ccccc1,active: 44.8%
10,Cc1ccc(Cl)cc1NC(=O)CN(C)S(=O)(=O)c1ccc2c(c1)n(C)c(=O)c(=O)n2C,2.56%
11,COc1ccc(C2C(C(N)=O)=C(C)Nc3nc(-c4ccccc4Cl)nn32)cc1 (stereo not drawn),19.4%
12,O=C(O)CC1SC(=Nc2ccccc2)N(c2ccccc2)C1=O (stereo not drawn),active: 42.6%
13,COc1cccc(NC(=O)CC2C(=O)OCCN2Cc2ccccc2)c1 (stereo not drawn),14.6%
14,Cc1ccc2oc(C(=O)N(Cc3ccccc3F)C3CCS(=O)(=O)C3)c(C)c2c1 (stereo not drawn),-7.19%
15,Cn1c(=O)[nH]c(=O)c2c1nc1n(CCO)c(-c3ccccc3)cn21,3.09%
16,O=C(CSc1nc2c(cnn2-c2ccc(F)cc2)c(=O)[nH]1)Nc1ccc(Br)cc1,-5.46%
17,CCCCOc1ccc(-c2cc3c(=O)n(CC(=O)Nc4ccc(Cl)cc4Cl)ccn3n2)cc1,-14.8%
18,CCOc1cccc2cc(-c3nnc(Nc4ccc(F)c(Cl)c4)s3)c(=O)oc12,-9.18%
19,Cc1ccc(-c2nn(CC(=O)NC3CCCCC3)c3c2cnc2ccc(F)cc23)cc1C,4.43%
20,CC1CCc2c(sc(NC(=O)COc3ccccc3)c2C(=O)Nc2ccccc2Cl)C1 (stereo not drawn),9.13%
21,Cc1ccc(CSCC(=O)N2CCN(c3cc(Cl)ccc3C)CC2)cc1,3.55%
22,Cc1ccc(-n2nc(C(=O)NCCN(C)C)c(=O)n(C)c2=O)cc1,-4.65%
23,O=C(Nc1ccc(SC(F)F)cc1)c1cc(-c2ccc3c(c2)OCCO3)on1,-6.47%
24,O=C(O)c1ccccc1OC(C(=O)Nc1cc(Cl)cc(Cl)c1)c1ccccc1 (stereo not drawn),active: 36.1%
25,Cc1noc(Cn2c(=O)c3cc4c(cc3n(CC(=O)Nc3cccc(Cl)c3)c2=O)OCO4)n1,-3.24%

row,SMILES,inhibition
1,CCOc1ccc(CNC(=O)c2c(C)nn(-c3ccc(F)cc3)c2-n2cccc2)cc1,-11%
2,Cc1cccc(C)c1NC(=O)CN1C(=O)S/C(=C\c2cccn2C)C1=O,active: 30.1%
3,CC(=O)Nc1nonc1-c1nnc(SCC(=O)Nc2ccc(C)cc2C)n1C,-10.1%
4,COc1ccc(NC(=O)[C@@H](c2ccccc2)N2Cc3ccccc3C2=O)cc1OC,-18.8%
5,Cc1nc(C)n(CC(C)C(=O)N2CCN(S(=O)(=O)c3ccccc3)CC2)n1 (stereo not drawn),active: 31.7%
6,CCN(CC)c1cc(C)c2cc(NC(=O)/C=C/c3ccc(C)cc3)ccc2n1,0.673%
7,CC(=O)c1ccc(N2CCN(C(=O)c3cc4cc5cc(C)ccc5nc4s3)CC2)cc1,12.5%
8,Cc1ccc(C)c(NC(=O)C2CCCN(S(=O)(=O)c3ccc4[nH]c(=O)ccc4c3)C2)c1 (stereo not drawn),-4.72%
9,CCC(=O)Nc1nc(-c2ccc3c(c2)OCCO3)cs1,active: 31.8%
10,Cn1nccc1NC(=O)Nc1ccc(Cl)cc1,active: 43%
11,Cc1ccc(C(=O)c2oc3ccccc3c2NC(=O)c2cc(-c3ccccc3)on2)cc1F,-4.74%
12,CCCN(CCC)C(=O)C1CCCN(S(=O)(=O)c2ccc3c(c2)oc(=O)n3C)C1 (stereo not drawn),16%
13,Cc1ccc(/C=N/NC(=O)Cn2nnc(N)n2)cc1,active: 41%
14,O=C(c1ccccc1)c1ccccc1NC(=O)c1ccccc1C(=O)O,-1.84%
15,COc1ccc(CCNC(=O)[C@@H](NC(N)=O)C(C)C)cc1,active: 50.1%
16,COc1ccc(-c2noc(-c3ccc(NC4CCCC4)c([N+](=O)[O-])c3)n2)cc1,8.01%
17,Oc1c(Br)cc(Br)cc1-c1nc2ccccc2s1,6.61%
18,CS(=O)(=O)N(CC(=O)NCCSc1ccccc1)c1cc(C(F)(F)F)ccc1Cl,-15.6%
19,COc1cccc(C2C(C(=O)Nc3ccccc3)=C(C)Nc3nc(-c4ccccc4)nn32)c1 (stereo not drawn),-19.5%
20,COc1ccc(OC)c(NC(=O)CSc2cn(CC(=O)N3CCOCC3)c3ccccc23)c1,-5.96%
21,COc1ccc(Cl)cc1NC(=O)c1cc2c(s1)-c1ccccc1OC2,-1.38%
22,CCc1ccc(OC(C)C(=O)Nc2c(C(=O)c3ccccc3)oc3ccccc23)cc1 (stereo not drawn),6.03%
23,Cc1nn(CC(C)C)c(=S)[nH]c1=O,active: 31.6%
24,COCCNC(=O)CCc1nc2cccnc2n1Cc1ccc(OC)cc1,6.08%
25,Cc1c(C(=O)N2CCC(C(=O)Nc3ccc(F)cc3)CC2)sc2nc[nH]c(=O)c12,-22.5%

row,SMILES,inhibition
1,Cc1noc2ncnc(NCc3cccc(Cl)c3)c12,-6.67%
2,Cc1cccc(-n2c3nc(=O)n(C)c(=O)c-3cc3ccc(Cl)cc32)c1C,2.59%
3,CS(=O)(=O)N1CCc2cc(C(=O)NCc3ccccc3)ccc21,8.12%
4,Oc1cccc(Nc2ncnc3sc4c(c23)CCCC4)c1,5.62%
5,CCOc1ccc(-n2c(SCC(=O)N3CCCCC3)nc3c([nH]c4ccccc43)c2=O)cc1,0.804%
6,O=C(Cn1c(=O)n(Cc2ccc3c(c2)OCO3)c(=O)c2ccc(C(=O)NC3CCCCC3)cc21)Nc1ccccc1F,-24.5%
7,Cc1cccn2c(=O)c3cc(C(=O)NCc4ccccc4Cl)sc3nc12,-22.8%
8,COc1ccc(-c2cc(C(=O)Oc3ccc(C)c(C)c3)c3ccccc3n2)cc1,7.2%
9,O=C(NC1CC2CCCC(C1)N2Cc1cccs1)c1ccc([N+](=O)[O-])cc1 (stereo not drawn),active: 57.2%
10,Cc1ccc(C(=O)NC2(C(F)(F)F)C(=O)Nc3c2c(=O)[nH]c(=O)n3CCc2ccccc2)cc1 (stereo not drawn),17.8%
11,CCOC(=O)c1cc(-c2ccccc2)n(CCCC(=O)Nc2ccc(C)cc2C)c1C,11.1%
12,O=C(N/N=C/c1ccccc1O)C1CC(=O)N(c2ccc(Cl)cc2)C1 (stereo not drawn),active: 35.2%
13,O=c1[nH]c(SCc2ccc(Br)cc2)nc2c1CCCC2,1.05%
14,Cc1ccc(S(=O)(=O)N2CCN=C2SCc2ccc(Cl)c(Cl)c2)cc1,active: 30.2%
15,Cc1ccc(S(=O)(=O)c2nnn3c2nc(N2CCN(c4ccccc4F)CC2)c2ccccc23)cc1C,13.5%
16,O=C(NC1CC(=O)N(c2ccc(Cl)cc2)C1)c1cccs1 (stereo not drawn),21.5%
17,CC(NC(=O)Cn1c(-c2cccs2)cc2cc(F)ccc21)c1ccccc1 (stereo not drawn),-0.575%
18,O=C(CSc1nc(=O)n(Cc2ccco2)c2c1CCC2)NCc1ccc(F)cc1,-22.5%
19,COc1ccc(N=Cc2c(O)n(-c3cccc(C)n3)c(=O)c3ccccc23)cc1,active: 32%
20,COc1ccc(Cl)c2c1[nH]c1nc(SCc3ccccn3)nnc12,active: 42.9%
21,CC1=C(C(=O)Nc2ccccc2C)C(c2ccccn2)n2nc(SCc3ccccc3F)nc2N1 (stereo not drawn),8.95%
22,COc1ccc2nc(NC(=O)c3ccc(S(=O)(=O)N4CCCC(C)C4)cc3)sc2c1 (stereo not drawn),11.5%
23,CN(c1ccc(C(=O)Nc2ccc(CC#N)cc2)cc1)S(C)(=O)=O,active: 40.7%
24,CCc1ccc(NC(=O)CSc2nc(=O)n(Cc3ccco3)c3c2CCC3)cc1,20%
25,Cc1nc2nc(NC(=O)c3ccc(Cl)cc3)[nH]n2c(=O)c1Cc1ccccc1,14.3%

row,SMILES,inhibition
1,COc1ccc(-c2cc(C(=O)NCCc3ccccc3)c3cc(C(C)C)ccc3n2)cc1,27.1%
2,CC(=O)c1ccc(N2CCN(C3C(=O)c4ccccc4N3C(C)=O)CC2)cc1 (stereo not drawn),5.41%
3,O=S(=O)(c1ccc(Br)cc1)c1nnn2c1nc(NCc1cccs1)c1sccc12,-8.84%
4,COCCCNC(=O)C1CCN(c2cc(C)nc3c(-c4ccc(OC)c(OC)c4)c(C)nn23)CC1,-0.724%
5,CCOc1cc(-c2nc(-c3ccc(-c4ccc(OC)cc4)nc3OC)no2)cc(OCC)c1OCC,0.687%
6,COc1ccccc1NC(=O)CCn1c(=O)oc2cc(Cl)ccc21,-9.58%
7,COc1ccc(-n2cc(C(=O)NCc3cccc(OC)c3)c3ccccc3c2=O)cc1,13.8%
8,Cc1ccc(Cn2c(C(=O)O)c(CNCCc3ccco3)c3ccc(C)cc32)cc1,10%
9,Cc1cc(C)c(C(=O)Nc2ccccc2)c(SCC(=O)Nc2ccc(Br)cc2C)n1,-4.99%
10,O=C(COC(=O)CCCSc1nc2ccccc2[nH]1)Nc1ccc(Oc2ccccc2)cc1,active: 38.2%
11,CCn1c(NCc2cccc(Cl)c2)nc2ccccc21,19.3%
12,CC(C)N(Cc1ccccc1)C(=O)C1CCCN(c2ncnc3c2nc2n3CCCCC2)C1 (stereo not drawn),active: 38%
13,O=c1cc(-c2ccc(O)cc2)oc2ccc(O)cc12,active: 37.4%
14,COc1cc(-c2nc3ccc(C)cn3c2Nc2ccc(Cl)cc2)ccc1O,12.7%
15,O=C(CSc1nc(-c2ccccc2)cn1-c1ccccc1)Nc1ccccc1,-8.3%
16,COc1cccc(C(=O)NC2=NC(c3ccc(N(C)C)cc3)CC(=O)N2)c1 (stereo not drawn),15.2%
17,CC(C)Oc1ccc(CNC(=O)CCCn2c(=O)c3cccn3c3cccnc32)cc1,3.53%
18,O=C(NCc1ccc2c(c1)CCN2C(=O)c1ccncc1)c1ccc(Cl)cc1,4.07%
19,COc1cccc(-c2nnc3n(Cc4ccccc4Cl)c(=O)c4ccccc4n23)c1O,1.43%
20,Cc1ccc2c(=O)c(C(=O)c3ccccc3)cn(CC(=O)Nc3ccccc3)c2n1,-11%
21,Cc1c(Cl)cccc1NC(=O)CN1C(=O)CCn2nc(-c3cccn3C)cc21,-8.66%
22,COCCN(CCOC)C(=O)c1cc2c(=O)n3ccccc3nc2n1C,25.7%
23,CCOC(=O)C(Cc1c[nH]c2ccccc12)NC(=O)COc1ccc(Cl)cc1 (stereo not drawn),12.2%
